Common to all, as to assay: uncleaved DNA left, log2 of reads against the no-enzyme library (log2 ratio); higher = less cleavage (more negative = more Rep cleavage of the k-mer); sequences stand for … in CTCGTCCG…ACCGGAGA
For assay [1], the system named is T1, Rep nickase domain of Muscovy duck circovirus.
T1 sequence (Rep 1-111, printed without the tag): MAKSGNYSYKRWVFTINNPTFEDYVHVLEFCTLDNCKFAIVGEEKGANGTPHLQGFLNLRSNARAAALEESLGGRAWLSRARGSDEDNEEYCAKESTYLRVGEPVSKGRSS
Here is the method:
(§1)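 A pool of 90-nt single-stranded DNAs with seven random bases just before the constant AC of the nick site (name = the seven bases) was cut by 3 µM recombinant His6-SUMO-tagged Rep nickase domain (300 nM DNA, 50 mM HEPES pH 8.0, 50 mM NaCl, 1 mM MnCl2, 1 h, 37 °C, three replicates). Uncut DNA was amplified and sequenced.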

Assay [2] relates to T2, Rep nickase domain of banana bunchy top virus.
T2 sequence (Rep 1-94, printed without the tag): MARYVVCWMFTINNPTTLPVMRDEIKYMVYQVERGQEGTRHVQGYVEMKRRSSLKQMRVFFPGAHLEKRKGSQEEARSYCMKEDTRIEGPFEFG
Here is the method: as §1
The test system of assay [3] is T3, Rep nickase domain of cabbage leaf curl virus.
T3 sequence (Rep 1-116, printed without the tag): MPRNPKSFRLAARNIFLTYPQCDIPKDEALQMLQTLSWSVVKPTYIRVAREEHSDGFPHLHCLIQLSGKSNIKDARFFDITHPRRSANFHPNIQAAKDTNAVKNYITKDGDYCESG
Here is the method: as §1
Assay [4] relates to T4, Rep nickase domain of chickpea chlorotic dwarf virus.
T4 sequence (Rep 1-124, printed without the tag): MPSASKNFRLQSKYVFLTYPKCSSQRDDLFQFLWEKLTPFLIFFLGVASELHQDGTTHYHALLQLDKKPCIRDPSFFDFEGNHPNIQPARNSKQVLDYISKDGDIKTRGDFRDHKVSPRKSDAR
Here is the method:
as §1

Assay [5] has as its system T5, Rep nickase domain of faba bean necrotic yellows virus.
T5 sequence (Rep 1-98, printed without the tag): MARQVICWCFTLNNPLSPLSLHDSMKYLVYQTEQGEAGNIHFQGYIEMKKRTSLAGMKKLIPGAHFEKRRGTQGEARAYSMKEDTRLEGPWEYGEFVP
Here is the method: as §1
Assay [6] concerns T6, Rep nickase domain of maize striate mosaic virus.
T6 sequence (Rep 1-117, printed without the tag): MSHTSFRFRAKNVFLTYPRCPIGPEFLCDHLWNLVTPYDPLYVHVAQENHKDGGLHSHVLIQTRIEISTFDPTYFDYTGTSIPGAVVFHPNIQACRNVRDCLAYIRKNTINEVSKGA
On the procedure: as §1
The test system of assay [7] is T7, Rep nickase domain of porcine circovirus 2.
T7 sequence (Rep 2-116, printed without the tag): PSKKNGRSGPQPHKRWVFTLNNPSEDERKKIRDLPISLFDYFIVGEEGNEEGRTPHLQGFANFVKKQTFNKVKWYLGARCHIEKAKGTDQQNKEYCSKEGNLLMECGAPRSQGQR
Here is the method: as §1
In assay [8] the test system is T8, Rep nickase domain of tomato yellow leaf curl virus.
T8 sequence (Rep 1-136, printed without the tag): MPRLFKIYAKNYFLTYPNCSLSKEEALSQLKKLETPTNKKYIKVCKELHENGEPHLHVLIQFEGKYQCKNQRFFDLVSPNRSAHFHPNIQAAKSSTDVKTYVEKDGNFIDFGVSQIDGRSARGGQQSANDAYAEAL
On the procedure:
as §1

The test system of assay [9] is T9, Rep nickase domain of wheat dwarf virus.
T9 sequence (Rep 1-137, printed without the tag): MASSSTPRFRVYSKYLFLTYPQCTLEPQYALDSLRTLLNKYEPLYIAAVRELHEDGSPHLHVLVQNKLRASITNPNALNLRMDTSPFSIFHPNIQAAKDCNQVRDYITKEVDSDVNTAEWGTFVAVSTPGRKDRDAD
Here is the method: as §1

This is one part of the list. One pool of 16,384 single-stranded DNAs met each Rep nickase domain in vitro at 3 µM enzyme and 37 °C for 1 h; the strands have 90 letters, of which the middle is given. Uncut reads are compared with the no-enzyme pool on a log2 scale; more negative means more cut, near 0 not cut, and no call is made. Counts are relative to all reads, so uncut sequences can rise above 0 when many others are cut.

Take TTACGAC: the “uncleaved DNA left (log2)” value in assay [1] is 0.0829; in [2], 0.00934; in assay [3], 0.143; in assay [4] it was -1.14; in assay [5] it was 0.172; in [6], -0.267. The figures for the “uncleaved DNA left (log2)” value in assay [7], in [8] and in assay [9] were 0.111, -0.0453 and 0.0198, respectively.

Regarding AATTAGC, the “uncleaved DNA left (log2)” value was -0.0433 in [1]; -0.0178 in [2]; -0.572 in assay [3]; -0.72 in assay [4]; -0.0167 in assay [5]; -1.16 in assay [6]. Besides, the “uncleaved DNA left (log2)” value in assay [7] is 0.025; in [8], -0.0263; in [9], -0.113.

With AATTCTC, the “uncleaved DNA left (log2)” value in assay [1] is -2.94; in assay [2], -1.76; in assay [3], 0.0438; in assay [4], -0.499; in [5], 0.0165; in assay [6], -0.539. Besides, the “uncleaved DNA left (log2)” value is -2.79 in assay [7], 0.0661 in assay [8] and 0.098 in assay [9].

Consider CAAATAT, for which the “uncleaved DNA left (log2)” value was 0.0659 in [1]; -0.0925 in [2]; -2.26 in assay [3]; -2.63 in assay [4]; 0.0987 in assay [5]; -1.16 in [6]. The “uncleaved DNA left (log2)” value was -0.381 in [7], -0.0405 in [8] and -0.818 in assay [9].

Regarding ATGAGTC, the “uncleaved DNA left (log2)” value in assay [1] is 0.0343; in [2] it was -0.114; in [3] it was -0.108; in assay [4], -0.148; in assay [5], -0.0637; in assay [6], -0.789. Moreover, the “uncleaved DNA left (log2)” value in assay [7] is 0.0784; in assay [8], -0.0694; in assay [9], -0.0904.

In the case of TATGACG, the “uncleaved DNA left (log2)” value in assay [1] is -0.183; in [2], -0.18; in assay [3], -0.912; in [4], -0.705; in assay [5] it was -0.156; in [6], -1.34. For the same sequence, the “uncleaved DNA left (log2)” value is -0.0205 in assay [7], -0.078 in assay [8] and -0.278 in assay [9].

With TCGTATG, the “uncleaved DNA left (log2)” value in assay [1] is 0.305; in [2], 0.257; in [3] it was 0.0337; in assay [4], 0.00591; in [5], 0.17; in assay [6] it was -0.102. In addition, the results for the “uncleaved DNA left (log2)” value in assay [7], in assay [8] and in [9] were 0.327, 0.103 and 0.189, respectively.

In the case of GAGATTC, the “uncleaved DNA left (log2)” value in assay [1] was -0.00713; in assay [2] it was 0.0205; in assay [3] it was 0.423; in assay [4], 1.09; in assay [5], 0.0739; in [6] it was 1.25. The “uncleaved DNA left (log2)” value in [7] is -0.0321; in assay [8] it was 0.00138; in [9], 0.138.

For the sequence AAAGAGG, the “uncleaved DNA left (log2)” value was 0.00706 in [1]; -0.002 in [2]; 0.168 in [3]; 0.716 in [4]; 0.0706 in [5]; -0.0784 in assay [6]. Further, the “uncleaved DNA left (log2)” value was 0.27 in assay [7], -0.073 in assay [8] and -0.0137 in assay [9].

Consider GGCTTGT, for which the “uncleaved DNA left (log2)” value in [1] is -0.0391; in assay [2] it was 0.0126; in [3], 0.196; in assay [4], 0.769; in [5], -0.0141; in assay [6], 1.65. The “uncleaved DNA left (log2)” value is -0.118 in assay [7], 0.0437 in assay [8] and 0.0323 in assay [9].

For the sequence GGACGCC, the “uncleaved DNA left (log2)” value was 0.0661 in assay [1]; 0.0313 in [2]; 0.77 in assay [3]; 1.62 in assay [4]; -0.0234 in [5]; 2.15 in assay [6]. For the same sequence, the “uncleaved DNA left (log2)” value is 0.154 in assay [7], -0.0859 in [8] and 0.155 in assay [9].

With TAAAGCT, the “uncleaved DNA left (log2)” value in [1] was 0.0544; in assay [2] it was -0.00557; in assay [3] it was -3.65; in assay [4], -2.91; in [5], 0.0171; in [6], -1.6. In addition, the “uncleaved DNA left (log2)” value in assay [7] was -0.122; in assay [8], -0.00972; in assay [9] it was -2.69.

For the sequence GTCCATA, the “uncleaved DNA left (log2)” value in assay [1] was 0.0604; in [2] it was 0.207; in assay [3] it was 0.476; in assay [4] it was 0.955; in assay [5], -0.0506; in assay [6], 1.75. Further, the “uncleaved DNA left (log2)” value is 0.0955 in assay [7], 0.0858 in [8] and 0.176 in assay [9].

TTGGTCC: the “uncleaved DNA left (log2)” value is 0.0181 in assay [1]; 0.0754 in assay [2]; 0.246 in assay [3]; -0.172 in assay [4]; 0.0264 in [5]; -0.162 in [6]. Moreover, the entries for the “uncleaved DNA left (log2)” value in [7], in assay [8] and in [9] were -0.152, 0.093 and -0.00311, respectively.

In the case of TTTAGCC, the “uncleaved DNA left (log2)” value in assay [1] is 0.0178; in assay [2], -0.000401; in [3], -0.0647; in assay [4] it was -0.475; in assay [5] it was -0.107; in assay [6] it was -1.1. For the same sequence, the “uncleaved DNA left (log2)” value is 0.0111 in [7], 0.00663 in assay [8] and -0.0196 in assay [9].

(Values after the supplement of paper PMC7826260.)
